pIC50: −log10 of the molar value. By IC50 is meant the dose at which the fit gives 50% viability; fits outside the tested doses are given as limits. The AUC spans the tested range (256-fold, ending at the top dose) of the same fit; it is 1 without any effect and falls as sensitivity rises. For part of these data: An inferred top dose was derived from the fitted curves, not read from the paper.
Assays:
Assay in all cases: Viability of human cancer cell lines after 72 h of drug (GDSC screen)
XMD15-27 = compound: C=CC(=O)Nc1ccc(C(=O)c2sc(Nc3ccc(N4CCN(C)CC4)cc3OC)nc2N)cc1 [XMD15-27]; details: top dose 10.24 µM; top dose inferred
Experimental: (§1)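 Human cancer cell lines in 384-well plates, medium with 10% serum, drug for 72 h over a 256-fold dose range (nine 2-fold or five 4-fold steps up to the top dose). Adherent lines were fixed and stained with the nucleic acid dye Syto60, suspension lines read with resazurin; signal relative to control wells, capped at 0 and 100%. One two-parameter sigmoid per drug and line, fitted in a mixed model over all curves with the slope shared within a line.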

Temsirolimus = compound: CO[C@H]1C[C@@H]2CC[C@@H](C)[C@@](O)(O2)C(=O)C(=O)N2CCCC[C@H]2C(=O)O[C@H]([C@H](C)C[C@@H]2CC[C@@H](OC(=O)C(C)(CO)CO)[C@H](OC)C2)CC(=O)[C@H](C)/C=C(\C)[C@@H](O)[C@@H](OC)C(=O)[C@H](C)C[C@H](C)/C=C/C=C/C=C/1C [Temsirolimus]; details: top dose 0.2 µM
Experimental: as §1

SL 0101-1 = compound: CC(=O)O[C@@H]1[C@@H](OC(C)=O)[C@@H](O)[C@H](Oc2c(-c3ccc(O)cc3)oc3cc(O)cc(O)c3c2=O)O[C@H]1C [SL 0101-1]; details: top dose 10 µM; top dose inferred
Experimental: as §1

Cell Line	AUC (XMD15-27)	pIC50 (XMD15-27)	AUC (Temsirolimus)	pIC50 (Temsirolimus)	AUC (SL 0101-1)	pIC50 (SL 0101-1)
MY-M12 (leukaemia, suspension)	0.971	< 4.99	0.486	7.94	0.981	< 5.00
MZ1-PC (pancreas, adherent)	0.951	< 4.99	0.97	< 6.70	0.911	< 5.00
MZ2-MEL (melanoma, adherent)	0.983	< 4.99	0.259	8.65	0.975	< 5.00
Mo-T (hairy cell leukaemia, suspension)	0.958	< 4.99	0.737	7.22	0.98	< 5.00
NALM-6 (B-cell leukaemia, suspension)	0.88	5.12	0.928	< 6.70	0.989	< 5.00
NAMALWA (Burkitt lymphoma, suspension)	0.964	< 4.99	0.855	6.92	0.988	< 5.00
NB1 (neuroblastoma, semi-adherent)	0.911	< 4.99	0.863	< 6.70	0.984	< 5.00
NB5 (neuroblastoma, adherent)	0.986	< 4.99	0.738	7.22	0.978	< 5.00
NB6 (neuroblastoma, adherent)	0.984	< 4.99	0.957	< 6.70	0.984	< 5.00
NB10 (neuroblastoma, adherent)	0.987	< 4.99	0.779	7.10	0.902	< 5.00
NB12 (neuroblastoma, adherent)	0.873	< 4.99	0.907	< 6.70	0.979	< 5.00
NB13 (neuroblastoma, adherent)	0.99	< 4.99	0.912	< 6.70	0.982	< 5.00
NB14 (neuroblastoma, adherent)	0.989	< 4.99	0.828	6.94	0.978	< 5.00
NB17 (neuroblastoma, adherent)	0.981	< 4.99	0.975	< 6.70	0.978	< 5.00
NB69 (neuroblastoma, adherent)	0.99	< 4.99	0.321	8.37	0.971	< 5.00
NB(TU)1-10 (neuroblastoma, adherent)	0.993	< 4.99	0.99	< 6.70	0.982	< 5.00
NB-4 (acute myeloid leukaemia, suspension)	0.918	< 4.99	0.874	6.87	0.99	< 5.00
NCC021 (kidney, adherent)	0.959	< 4.99	0.835	6.79	0.976	< 5.00
NCI-H23 (lung adenocarcinoma, adherent)	0.988	< 4.99	0.832	6.90	0.985	< 5.00
NCI-H28 (mesothelioma, adherent)	0.973	< 4.99	0.815	6.81	0.974	< 5.00
NCI-H64 (small cell lung carcinoma, suspension)	0.996	< 4.99	0.98	< 6.70	0.995	< 5.00
NCI-H69 (small cell lung carcinoma, suspension)	0.981	< 4.99	0.935	< 6.70	0.986	< 5.00

Cell Line	AUC (XMD15-27)	pIC50 (XMD15-27)	AUC (Temsirolimus)	pIC50 (Temsirolimus)	AUC (SL 0101-1)	pIC50 (SL 0101-1)
NCI-H82 (small cell lung carcinoma, suspension)	0.989	< 4.99	0.94	< 6.70	0.975	< 5.00
NCI-H187 (small cell lung carcinoma, suspension)	0.981	< 4.99	0.926	< 6.70	0.988	< 5.00
NCI-H209 (small cell lung carcinoma, suspension)	0.937	< 4.99	0.765	7.11	0.949	< 5.00
NCI-H211 (small cell lung carcinoma, adherent)	0.985	< 4.99	0.906	< 6.70	0.982	< 5.00
NCI-H226 (lung squamous cell carcinoma, adherent)	0.987	< 4.99	0.943	< 6.70	0.987	< 5.00
NCI-H322M (lung adenocarcinoma, suspension)	0.975	< 4.99	0.957	< 6.70	0.943	< 5.00
NCI-H345 (small cell lung carcinoma, suspension)	0.987	< 4.99	0.968	< 6.70	0.99	< 5.00
NCI-H446 (small cell lung carcinoma, semi-adherent)	0.96	< 4.99	0.89	< 6.70	0.985	< 5.00
NCI-H510A (small cell lung carcinoma, semi-adherent)	0.988	< 4.99	0.92	< 6.70	0.987	< 5.00
NCI-H520 (lung squamous cell carcinoma, adherent)	0.978	< 4.99	0.891	< 6.70	0.979	< 5.00
NCI-H524 (small cell lung carcinoma, suspension)	0.988	< 4.99	0.939	< 6.70	0.989	< 5.00
NCI-H526 (small cell lung carcinoma, suspension)	0.938	< 4.99	0.894	< 6.70	0.989	< 5.00
NCI-H596 (lung adenocarcinoma, adherent)	0.981	< 4.99	0.928	< 6.70	0.973	< 5.00
NCI-H630 (large intestine, adherent)	0.983	< 4.99	0.988	< 6.70	0.986	< 5.00
NCI-H650 (lung adenocarcinoma, adherent)	0.983	< 4.99	0.956	< 6.70	0.974	< 5.00
NCI-H661 (large cell lung carcinoma, adherent)	0.978	< 4.99	0.765	7.06	0.943	< 5.00
NCI-H720 (lung carcinoid, suspension)	0.992	< 4.99	0.866	6.81	0.992	< 5.00
NCI-H727 (lung carcinoid, adherent)	0.974	< 4.99	0.845	< 6.70	0.905	< 5.00
NCI-H747 (large intestine, adherent)	0.957	< 4.99	0.913	< 6.70	0.981	< 5.00
NCI-H810 (large cell lung carcinoma, adherent)	0.981	< 4.99	0.919	< 6.70	0.983	< 5.00
NCI-H838 (lung adenocarcinoma, adherent)	0.987	< 4.99	0.594	7.64	0.987	< 5.00
NCI-H841 (small cell lung carcinoma, adherent)	0.982	< 4.99	0.605	7.61	0.988	< 5.00

Cell Line	AUC (XMD15-27)	pIC50 (XMD15-27)	AUC (Temsirolimus)	pIC50 (Temsirolimus)	AUC (SL 0101-1)	pIC50 (SL 0101-1)
NCI-H847 (small cell lung carcinoma, adherent)	0.98	< 4.99	0.989	< 6.70	0.993	< 5.00
NCI-H1048 (small cell lung carcinoma, adherent)	0.985	< 4.99	0.915	< 6.70	0.983	< 5.00
NCI-H1092 (small cell lung carcinoma, suspension)	0.99	< 4.99	0.98	< 6.70	0.99	< 5.00
NCI-H1155 (large cell lung carcinoma, suspension)	0.993	< 4.99	0.8	7.11	0.989	< 5.00
NCI-H1304 (small cell lung carcinoma, suspension)	0.988	< 4.99	0.956	< 6.70	0.964	< 5.00
NCI-H1395 (lung adenocarcinoma, adherent)	0.982	< 4.99	0.927	< 6.70	0.969	< 5.00
NCI-H1417 (small cell lung carcinoma, suspension)	0.941	< 4.99	0.803	6.91	0.968	< 5.00
NCI-H1435 (lung adenocarcinoma, semi-adherent)	0.993	< 4.99	0.977	< 6.70	0.992	< 5.00
NCI-H1436 (small cell lung carcinoma, suspension)	0.986	< 4.99	0.975	< 6.70	0.97	< 5.00
NCI-H1437 (lung adenocarcinoma, adherent)	0.962	< 4.99	0.649	7.48	0.985	< 5.00
NCI-H1563 (lung adenocarcinoma, adherent)	0.955	< 4.99	0.722	7.22	0.985	< 5.00
NCI-H1568 (lung adenocarcinoma, adherent)	0.977	< 4.99	0.851	< 6.70	0.969	< 5.00
NCI-H1623 (lung adenocarcinoma, adherent)	0.985	< 4.99	0.872	< 6.70	0.985	< 5.00
NCI-H1648 (lung adenocarcinoma, adherent)	0.978	< 4.99	0.859	6.74	0.929	< 5.00
NCI-H1651 (lung adenocarcinoma, adherent)	0.987	< 4.99	0.91	< 6.70	0.973	< 5.00
NCI-H1688 (small cell lung carcinoma, adherent)	0.979	< 4.99	0.828	6.85	0.986	< 5.00
NCI-H1693 (lung adenocarcinoma, adherent)	0.972	< 4.99	0.674	7.29	0.957	< 5.00
NCI-H1694 (small cell lung carcinoma, suspension)	0.978	< 4.99	0.911	< 6.70	0.978	< 5.00
NCI-H1703 (lung adenocarcinoma, adherent)	0.954	< 4.99	0.626	7.52	0.982	< 5.00
NCI-H1755 (lung adenocarcinoma, adherent)	0.984	< 4.99	0.888	< 6.70	0.981	< 5.00
NCI-H1770 (non-small cell lung carcinoma, suspension)	0.992	< 4.99	0.978	< 6.70	0.992	< 5.00
NCI-H1781 (lung adenocarcinoma, adherent)	0.989	< 4.99	0.906	< 6.70	0.989	< 5.00

From the supplement of paper PMC4967469
